# Out of some 310,000 compounds screened, about 14,000 (4.5%) showed an effect of 50% or more. Effects have a minus sign here. This is one part of the list.
# Target: human ether-à-go-go-related gene (hERG) potassium channel (human, UniProt Q12809)
# Experiment: primary screen, population patch clamp on CHO cells stably expressing hERG
# 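Note: peak tail current of the secondary pulse compared with the same well before compound.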
# Chain of human ether-à-go-go-related gene (hERG) potassium channel (Q12809 whole entry, looked up): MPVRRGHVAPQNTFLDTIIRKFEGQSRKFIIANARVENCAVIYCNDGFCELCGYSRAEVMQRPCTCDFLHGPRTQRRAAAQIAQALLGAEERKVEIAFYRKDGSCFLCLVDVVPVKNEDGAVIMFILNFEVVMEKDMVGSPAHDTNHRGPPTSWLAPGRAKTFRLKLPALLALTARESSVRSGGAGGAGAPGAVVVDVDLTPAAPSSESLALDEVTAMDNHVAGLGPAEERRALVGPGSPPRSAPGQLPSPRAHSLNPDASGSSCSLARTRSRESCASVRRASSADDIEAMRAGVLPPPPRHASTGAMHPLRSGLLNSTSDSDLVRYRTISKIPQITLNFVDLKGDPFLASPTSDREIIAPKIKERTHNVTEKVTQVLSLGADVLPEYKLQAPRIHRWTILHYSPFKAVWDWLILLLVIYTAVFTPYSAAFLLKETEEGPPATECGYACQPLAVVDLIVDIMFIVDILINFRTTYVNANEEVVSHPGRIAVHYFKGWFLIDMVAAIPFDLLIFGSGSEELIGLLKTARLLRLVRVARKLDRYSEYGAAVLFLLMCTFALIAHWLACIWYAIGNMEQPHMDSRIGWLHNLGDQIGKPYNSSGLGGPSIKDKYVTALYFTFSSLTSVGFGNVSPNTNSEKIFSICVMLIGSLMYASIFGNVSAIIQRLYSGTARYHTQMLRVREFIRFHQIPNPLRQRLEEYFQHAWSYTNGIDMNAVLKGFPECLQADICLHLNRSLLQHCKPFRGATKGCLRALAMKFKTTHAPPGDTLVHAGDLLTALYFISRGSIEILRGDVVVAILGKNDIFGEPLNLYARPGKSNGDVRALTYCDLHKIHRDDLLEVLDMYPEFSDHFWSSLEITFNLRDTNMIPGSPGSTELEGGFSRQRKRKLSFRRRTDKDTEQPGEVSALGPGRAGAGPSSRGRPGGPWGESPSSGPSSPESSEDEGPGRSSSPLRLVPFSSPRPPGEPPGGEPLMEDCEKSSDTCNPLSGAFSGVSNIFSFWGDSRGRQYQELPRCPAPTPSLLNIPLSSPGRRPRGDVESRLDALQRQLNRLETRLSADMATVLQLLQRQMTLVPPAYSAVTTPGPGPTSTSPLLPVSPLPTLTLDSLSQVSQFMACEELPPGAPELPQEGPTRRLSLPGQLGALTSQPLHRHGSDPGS
row,Structure (SMILES),"hERG current change (%, negative = inhibition) at 10uM [%]"
1,O=C(C[n+]1ccc2ccccc2c1)Nc1cc(C(F)(F)F)ccc1Cl.[Cl-],-44
2,Cn1c(/N=C/c2ccc3c(c2)OCO3)nc2ccccc21,-21
3,COc1cc(C)cc(CN2CC=C(c3ccccc3)CC2)c1O,-51.4
4,O=C(NN(C(=O)C1CC1)c1nc2ccccc2s1)C1CC1,2.43
5,CCOc1ncccc1C(=O)Nc1c(C)n(C)n(-c2ccccc2)c1=O,8.24
6,CCn1c(SCC(=O)Nc2sc3c(c2C(N)=O)CCC(C)C3)nnc1-c1ccco1 (stereo not shown),-11.2
7,CN=C(SCc1cc2c(cc1Cl)OCO2)c1c(O)n(C)c(=O)n(C)c1=O,8.63
8,Cc1nn(CCCC(=O)Nc2nccs2)c(C)c1[N+](=O)[O-],-5.37
9,COC(=O)c1ccc(-n2nnnc2SC)cc1,3.46
10,CCc1cc(Br)ccc1NC(=S)NCCc1ccccc1,3.97
11,CCn1cc(C2=NC(c3ccccc3)CO2)c2ccccc21 (stereo not shown),-1.46
12,Cc1cccc(N2CCN(C(=O)c3ccc(N4CCCC4=O)cc3)CC2C)c1 (stereo not shown),-7.58
13,COc1ccc(/C=C/C(=O)Oc2cccc(/C=N/NC(=O)COc3c(C)cccc3C)c2)cc1,11.8
14,Cc1cc(S(=O)(=O)NCC(C)C)ccc1OCC(=O)NCC1CCCO1 (stereo not shown),8.03
15,CC(=O)Nc1nc(-c2ccc([N+](=O)[O-])cc2)cs1,4.04
16,C=CCNc1nnc(SCC(=O)N2CCC(C(N)=O)CC2)s1,-7.48
17,Cc1[nH]c2ccccc2c1C(=O)COC(=O)c1ccc[n+]([O-])c1,0.499
18,Cc1cc(C)c(NC(=O)c2ccc(CNS(=O)(=O)c3cc(C(F)(F)F)ccc3Cl)cc2)c(C)c1,-3.61
19,Cc1cc(C)n2nc(SC(C)C(=O)N(C)c3ccccc3)nc2n1 (stereo not shown),11.5
20,O=C1CCN(Cc2ccc(Br)cc2)CCN1CCO,-1.08
21,COc1cc(NS(=O)(=O)c2ccc(Cl)cc2)c(C(=O)O)cc1OC,-4.44
22,Cc1cc2c(c(SCC(=O)NCc3ccccc3Cl)n1)C(=O)OC2,12.5

row,Structure (SMILES),"hERG current change (%, negative = inhibition) at 10uM [%]"
1,C[C@@H](NC(=O)c1nc[nH]c1C(=O)N(C)Cc1ccccc1)c1ccccc1,0.0989
2,N/C(CS(=O)(=O)c1ccccn1)=N\OC(=O)c1ccc(Cl)cc1,-14.3
3,Cc1ccc(NC(=O)Cn2c(=O)oc3ccccc32)cc1,14.3
4,CCOc1cc(C)c(Cl)cc1S(=O)(=O)n1ccnc1,4.53
5,COc1cc(S(=O)(=O)N(Cc2ccc(C)cc2)Cc2ccco2)ccc1-n1cnnn1,2.53
6,COc1ccc(C)cc1NC(=O)CSc1nnc(-c2ccc(OC)c(OC)c2)n1N,-19.3
7,CCOC(=O)C1=C(N)OC2=C(C(=O)CCC2)C1c1ccco1 (stereo not shown),-3.24
8,CCN(CC(=O)Nc1cccc(OC)c1)c1ncnc2sc(C)c(C)c12,-8.22
9,CC(C)=CCc1cc2c(=O)c3c(O)c4c(cc3oc2c(O)c1O)OC(C)C4(C)C (stereo not shown),-2.84
10,O=C(NCCN1CCC(Cc2ccccc2)CC1)C1CCN(S(=O)(=O)N2CCC3(CC2)OCCO3)CC1,-46.8
11,CC(C)[C@H](NC(=O)N1CC(=O)Nc2ccccc21)C(=O)N[C@@H](Cc1c[nH]c2ccccc12)C(=O)O,7.52
12,CC(=O)c1c(C)[nH]c(C(=O)NCc2ccccc2F)c1C,6.84
13,CC(=O)c1ccc(NC(=O)Cn2c3ccccc3c3nc(=O)cc(C)n32)cc1,-14.2
14,CC(C)(C)c1ccc(-n2ncc3c2CCCC3NC(=O)c2cnccn2)cc1 (stereo not shown),6.65
15,Cc1ccc(Nc2ncnc3c2cnn3C)cc1,-42.8
16,CC(=O)OCC[N+](C)(C)C.[O-][Cl+3]([O-])([O-])[O-],8.09
17,Cc1ccc(SCC2=NN(c3nc(C)cc(C)n3)C(=O)C2)cc1,-16
18,Cc1nn(Cc2ccccc2)c(C)c1C(=O)NCCN1C(=O)S/C(=C\c2ccc(F)cc2)C1=O,-5.67
19,CC(C)(C)NC(=O)C(c1cccnc1)N(C(=O)c1ccc(Cl)nc1)C1CCCC1 (stereo not shown),2.66
20,CC1=CC(C)(C)N2C(=O)C3(SCC(=O)N3c3ccc(O)cc3)c3cc(C)cc1c32 (stereo not shown),0.598
21,CC1C(=NO)C(C)C(c2ccc(N(C)C)cc2)NC1c1ccc(N(C)C)cc1 (stereo not shown),-9.71
22,C=CCn1c(SCC(=O)NCC2CCCO2)nnc1-c1ccccc1 (stereo not shown),8.59

row,Structure (SMILES),"hERG current change (%, negative = inhibition) at 10uM [%]"
1,COc1ccc(C2C(=O)N(C3CCCCC3)CC(=O)N2CCc2ccccc2)cc1OC (stereo not shown),-25.7
2,C/C(=N\NC(=O)CCCOc1ccc(Cl)cc1C)c1ccc(C)o1,3.58
3,CC(=O)c1ccc(NC(=S)N2CCCC(C(F)(F)F)C2)cc1 (stereo not shown),3.1
4,COc1cccc(NC(=O)C(C)C)c1,11.4
5,O=C(C1=C[C@@H](c2coc3ccccc3c2=O)C[C@@H](OCc2ccc(CO)cc2)O1)N1CCN(Cc2ccc3c(c2)OCO3)CC1,-66.1
6,COc1ccc(CCNc2ncnc3c2nnn3Cc2ccccc2)cc1OC,-10.9
7,O=C(CSc1nc(N2CCCCC2)nc(N2CCCCC2)n1)Nc1nccs1,10.3
8,CCn1cc(/C=C(\NC(=O)c2ccc(OC)c(OC)c2)C(=O)NCCN2CCOCC2)c2ccccc21,-4.43
9,CC(=O)N1CCN(S(=O)(=O)c2ccc(S(=O)(=O)N3CCCC(C)C3)cc2)CC1 (stereo not shown),15.6
10,CC(NCC(O)COc1ccc2ccccc2c1)c1ccccc1.O=C(O)C(=O)O (stereo not shown),-44
11,CNC(=O)COc1ccc(Nc2nnc(C)c3ccccc23)cc1.Cl,6.34
12,COc1ccc(C(=O)Nc2ccc(C(=O)N3CCCCC3)cc2)cc1OC,10.5
13,CCN(CC)S(=O)(=O)c1ccc(N=NC2=C(O)CCCC2=O)cc1,-6.95
14,COC(=O)C1=C(C)N(CCCC(=O)O)C(=O)NC1c1ccccc1Cl (stereo not shown),-14
15,CC(=O)OCC(=O)NCc1ccc2c(c1)OCO2,-28.4
16,CCCc1cc(=O)[nH]c2nnc(SCC(=O)NCc3ccc4c(c3)OCO4)n12,-17.2
17,CSc1nnc(-c2cnccn2)n1C,14.2
18,O=C(NCc1nnc2c(C(F)(F)F)cc(Cl)cn12)C1CCCC1,-12.7
19,O=C(NCCC(c1ccccc1)c1ccco1)c1cccs1 (stereo not shown),3.71
20,COc1ccc(CNC(=O)COC(=O)c2ccccc2C(=O)c2ccccc2)cc1,-14.1
21,Cc1ccnc(NC(=O)CCC(=O)c2cccs2)c1,12.5
22,O=C(CNC(=S)N(Cc1ccccc1F)C1CCCCC1)NCCN1CCOCC1,43.3

row,Structure (SMILES),"hERG current change (%, negative = inhibition) at 10uM [%]"
1,Cc1ccc(NC(=O)COC(=O)c2cc(Cl)ccc2[N+](=O)[O-])cc1,-11.1
2,CCN(CC)CCN1C(=O)C(O)=C(C(=O)c2cccs2)C1c1ccccn1 (stereo not shown),-2.98
3,Cc1ccc(S(=O)(=O)N(C)C)cc1NC(=O)COC(=O)CCC1CCCC1,-18.5
4,CC(=O)/C=C/n1c(=S)oc2ccccc21,-3.04
5,O=C(O)c1ccc(N/N=C/C2=Cc3ccccc3OC2)cc1,0.815
6,COc1ccc(S(=O)(=O)N2CCCCCC2)cc1C(=O)NCc1ccc(C)cc1,-29.1
7,CC(C)(C)c1ccc(CCC2OCC(C[N+]3(C)CCOCC3)O2)cc1.[I-] (stereo not shown),10.4
8,CCCOc1ccc(/C=N/NC(=O)CN(c2ccc(OCC)cc2)S(C)(=O)=O)cc1,-12.3
9,Cc1ccc(-c2cc(C(=O)NN)n[nH]2)o1,17.7
10,CCCOC1CCCN(C(=O)CCCn2nnnc2CN2CCOCC2)C1 (stereo not shown),9.27
11,CSCC(=O)Nc1cc(C)on1,7.57
12,COc1ccc(CC(C)Nc2ccccc2F)cc1 (stereo not shown),30.1
13,O=C1C2C3C=CC(CC3)C2C(=O)N1/N=C/c1ccccc1O (stereo not shown),0.279
14,CC(NC(=O)Nc1ncccn1)(C(F)(F)F)C(F)(F)F,-1.7
15,CCc1ccc(N2CC(C(=O)Nc3ccc(S(=O)(=O)NCC4CCCO4)cc3)CC2=O)cc1 (stereo not shown),15.4
16,CCOC(=O)c1[nH]c(C)c(/C(O)=C2\C(=O)C(=O)N(CCCn3ccnc3)C2c2ccncc2)c1C (stereo not shown),12.1
17,CCOCCCNC(=O)c1ccc(N2CC3CC(C2)c2cccc(=O)n2C3)c(NC(=O)Nc2cccc(OC)c2)c1 (stereo not shown),-2.16
18,CCOC(=O)C1CCCN(Cc2cc(=O)oc3cc(C)ccc23)C1 (stereo not shown),-13.6
19,Nc1nc(SCc2ccc(F)cc2)n[nH]1,21.2
20,O=C(COc1ccc(S(=O)(=O)N2CCCC2)cc1Cl)NC1CCCC1,-25.5
21,Cc1cc(C)n(C(=O)CN2C(=O)COc3ccccc32)n1,11.3
22,CSCC(=O)NCC1(N(C)Cc2ccccc2)Cc2ccccc2C1,4.41

# From paper PMC4336329 (PLoS ONE, 2015)
